From PubChem BioAssay AID1508623 (National Center for Advancing Translational Sciences (NCATS), 2021)
The campaign covered roughly 48,000 compounds. About 450 (0.94%) were called active. Another 19% or so got no clear call; they are omitted. Calls come from the whole dose curve; as a rule, active = well fitted inhibition curve with a large enough effect; inconclusive = small, poorly fitted or top-dose-only effect; inactive = no such curve, though single readings can be large or run the other way. Some of the results follow.

Experiment: Primary qHTS for Identification of Small Molecule Inhibitors of Huntingtin Promoter Activity; note: nearly all actives have a fitted effect of over 50% in size
Conditions: HEK293 HTT promoter firefly luciferase reporter (activity 0% = vehicle and -100% = no light), 24 h; series mostly up to 57.5 µM; activity change, negative = inhibition: at the top concentration
In short: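 Quantitative HTS used concentration series of up to 57.5 uM final on HEK293 luciferase reporter cells, 24 h at 37 degrees C. Readout was Dual-Glo firefly luminescence.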

SMILES	activity change, negative = inhibition
COc1ccccc1NC(=O)CSc1nnc(-c2cccc(Cl)c2)o1	inactive: 17.3%
CCOc1ccccc1-c1nc(-c2ccc(-c3ccccc3)nc2OCC)no1	inactive: -9.28%
CCn1cc(S(=O)(=O)c2cc(C)cc(C)c2)c(=O)c2cc(F)c(N3CCOCC3)cc21	inactive: -13.2%
Cc1ccc(Nc2c3c(nc4nncn24)CCC3)cc1	inactive: -22.2%
Cc1cc(C)cc(-n2cnc3cc(C(=O)NCCc4ccccc4)ccc32)c1	inactive: -12.6%
COc1cc(NC(=O)Cn2c(SCc3ccc(F)cc3)nc3cccnc32)cc(OC)c1	inactive: -8.99%
Cc1ccc(CCNC(=O)CCc2cn(Cc3ccccc3C)c3ccccc23)cc1	inactive: -23.1%
O=C(c1cccc(Cl)c1)n1nc(-c2ccco2)nc1NCc1cccs1	inactive: 24.2%
O=C(CNC(=O)c1ccccc1Cl)OCc1cc(=O)n2ccsc2n1	inactive: 1.29%
Brc1csc(CN2CCc3nc(Nc4ccccc4)ncc3C2)c1	inactive: 0.557%
Cc1cccc(NC(=O)c2cc(S(=O)(=O)N3CCCCC3)c[nH]2)c1C	inactive: -9.89%
Cc1cc(C)cc(OCC(=O)NCC(c2ccc(Cl)cc2)N2CCCCC2)c1 (configuration not stated)	inactive: 2.45%
Cn1c(=O)c2c(n3c4ccccc4nc13)NC(=O)CC2c1ccccc1F (configuration not stated)	inactive: -21.5%
CCc1nnc2c(Nc3ccc(Br)c(C)c3)nc3ccccc3n12	inactive: -8.09%
COc1ccc(S(=O)(=O)N2CCN(c3ccc(F)cc3)CC2)cc1-c1noc(C)n1	inactive: -17.3%
CCc1ccccc1NC(=O)Cn1nnc(C(=O)OC)c1C(=O)OC	inactive: -11.5%
CCN(CC)S(=O)(=O)c1ccc2c(c1)N(CC(=O)Nc1c(C)cccc1C)C(=O)CO2	inactive: -11.9%
COc1ccc(OC)c(N(CC(=O)NCc2ccccc2)S(=O)(=O)c2ccccc2)c1	inactive: -16.9%
CCc1ccc(NCc2cc3cc4c(cc3n(CC(=O)Nc3ccc(Cl)cc3)c2=O)OCO4)cc1	inactive: -15.5%
COc1ccccc1CCNC(=O)c1ccc2c(c1)c(C)c(C)n2C	inactive: 8.93%
Cc1cc(S(=O)(=O)Nc2cccc(C(=O)O)c2)c(C)c(S(=O)(=O)c2ccccc2)c1	inactive: -15.4%
COC(=O)c1cc(NC(=O)CCc2c(C)nc3c4c(C)cc(C)nc4nn3c2C)cc(C(=O)OC)c1	inactive: -18.6%
CCOC(=O)c1sc(N2C(=O)c3oc4cc(C)c(C)cc4c(=O)c3C2c2cccc(O)c2)nc1C (configuration not stated)	inactive: 3.89%
O=C1NC(=O)C(=Cc2ccc3nccnc3c2)S1	inactive: 12.9% [at 25.2 µM]
CC1CCN(c2nc3c(S(=O)(=O)c4ccccc4)nnn3c3ccsc23)CC1	inactive: -9.99%

SMILES	activity change, negative = inhibition
Oc1c(I)cc(I)c2cccnc12	inactive: -2.21%
COc1ccc(-c2nc(C)c(CCNC(=O)C(=O)Nc3cccc(F)c3)s2)cc1OC	inactive: 5.59%
COc1ccc(CCNC(=O)c2nn(-c3ccc(C)cc3)c(=O)c3c2c2ccccc2n3C)cc1OC	inactive: -7.19%
O=C(CC1N=C2c3ccccc3N=C(SCC(=O)Nc3cccc(C(F)(F)F)c3)N2C1=O)NCc1cccs1 (configuration not stated)	inactive: -21.5%
CCOC(=O)CCn1nc(-c2ccc(C)cc2)c2ccccc2c1=O	inactive: -32.3%
Cc1ccc(C)c(Cn2c(=O)n(Cc3ccccc3)c(=O)c3c(C)c(C)sc32)c1	inactive: 2.23%
CCc1ccccc1NC(=O)Nc1nnc(N2CCCC2)s1	inactive: -13.4%
CCc1ccc(CN(Cc2ccco2)C(=O)c2ccccc2Cl)cc1	inactive: -4.73%
COc1cc(NC(=O)Cn2c(=O)n(Cc3ccccc3OC)c(=O)c3cccnc32)cc(OC)c1	inactive: -26.7%
Cc1ccc(C(=O)COC(=O)c2cc(-c3ccccc3)nc3ccccc23)cc1C	inactive: 32.7%
Cc1ccc(C)c(N2CCN(S(=O)(=O)c3ccc4oc(=O)c5ncn(C)c5c4c3)CC2)c1	inactive: -11.8%
COc1ccc(NC(=O)CCN2CCN(c3cccc(Cl)c3)CC2)cc1	inactive: -8.25%
COc1cccc(CCNC(=O)c2c(O)nc3c(C)cccn3c2=O)c1	inactive: -2.07%
CC(Sc1nnc2ccc3ccccc3n12)C(=O)Nc1ccc(Cl)cc1 (configuration not stated)	inactive: -0.462%
Cc1nc2ccn(Cc3ccccc3)c(=O)c2cc1C(=O)N1CCN(c2ccc(F)cc2)CC1	inactive: -18.7%
NCCS(=O)(=O)O	inactive
COCCc1nn2c(=O)cc(COC(=O)C(c3ccccc3)c3ccccc3)nc2s1	inactive: -9.31%
CCOC(=O)c1cnc2cc(-c3ccc(OCC)cc3)nn2c1-c1ccccc1	inactive: -13.3%
Cc1cc(NC(=O)n2ncc3c(C)cccc32)ccc1Br	inactive: 70.1%
CCCCS(=O)(=O)N[C@@H](Cc1ccc(OCCCCC2CCNCC2)cc1)C(=O)O	inactive: 4.11%
CCn1cc(C(=O)O)c(=O)c2cnc(N3CCNCC3)nc21	inactive: 7.16%
COc1ccc(NC(=O)CSc2nccn2Cc2ccc3c(c2)OCO3)cc1	inactive: -17.9%
Cc1ccc(-n2c3c(cc(C(=O)Nc4ccccc4C(N)=O)c2=O)C(=O)CC(C)(C)C3)cc1	inactive: -20.1%
COc1ccc(C2=Nc3ccccc3NC(c3cccs3)=N2)cc1	inactive: -22.2%
Cc1cc(C)c(NC(=O)CSc2ccc(-c3ccccn3)nn2)c(C)c1	inactive: 4.01%

SMILES	activity change, negative = inhibition
CN(C)CCNC(=O)CN1C(=O)COc2ccc(S(=O)(=O)N3CCCC3)cc21	inactive: -13.1%
CCOc1ccccc1NC(=O)c1c(NC(=O)COc2ccccc2)sc2c1CCCC2	inactive: -7.87%
COc1cccc(NC(=O)CCC(=O)N2Cc3ccccc3Oc3ncccc32)c1	inactive: -2.8%
Cc1ccc(CNC(=O)CSc2nc3ccsc3c(=O)n2Cc2ccccc2F)cc1	inactive: -1%
CC(C)OC(=O)c1cccc(NC(=O)Cn2nnc3sc4c(c3c2=O)CCCC4)c1	inactive: 0%
Cc1ccc(S(=O)(=O)N2CCN(C(=O)c3cc(-c4ccc(Br)cc4)n[nH]3)CC2)c(C)c1	inactive: -26.7%
Cc1c(Cl)cccc1-n1ncc(C(=O)N2CCN(c3ncccn3)CC2)c1C1CCN(C(=O)OC(C)(C)C)CC1	inactive: -23.7%
Cc1ccc(NC(=O)C(Cc2ccccc2)NS(=O)(=O)c2ccc3c(c2)c(=O)n(C)c(=O)n3C)c(C)c1 (configuration not stated)	inactive: -4.8%
CCOc1ccccc1Nc1nc2ccccc2c2nncn12	inactive: -6.94%
COc1cccc2c1cc1c(=O)n(CC(=O)N3CCN(c4cccc(C)c4C)CC3)nc(C)n12	inactive: 7.77%
CCOc1ccc(CNC(=O)c2ccc3oc(=O)n(Cc4ccccc4)c3c2)cc1	inactive: -17.4%
Cc1ccc(Cn2nnc3c(=O)[nH]c(C4CCN(C(=O)Cc5ccccc5F)CC4)nc32)cc1	inactive: -18.1%
Cc1ccc(CNC(=O)C2CCN(S(=O)(=O)N3CCCCC3)CC2)cc1	inactive: -18.3%
CCc1cccc(NS(=O)(=O)c2c(C)[nH]c(=O)[nH]c2=O)c1	inactive: -10.9%
CC1CCN(S(=O)(=O)c2ccc3c(c2)CCN3C(=O)Nc2ccccc2Br)CC1	inactive: 3.18%
COc1ccc2c(c1)cc(CNc1ccc(OC)c(OC)c1)c(=O)n2CC(=O)Nc1ccccc1C	inactive: -26.3%
Fc1ccc(N2CCN(c3nc4ccccc4c4nc(-c5ccccc5)nn34)CC2)cc1	inactive: -7.78%
COc1ccc(OCC(=O)Nc2ccc(-c3nc4cc(C)cc(C)c4o3)cc2)cc1	inactive: 28.4%
COc1ccc(CC(=O)Nc2nc3c(s2)CC(C)CC3)cc1 (configuration not stated)	inactive: 27.1%
Cc1ccc(NC(=O)C2CCCN(S(=O)(=O)c3ccc4[nH]c(=O)ccc4c3)C2)cc1Cl (configuration not stated)	inactive: -12.8%
COc1ccc2c(c1)c1c(c(=O)n(CCc3ccccc3)c(=O)n1Cc1cccc(Cl)c1)n2C	inactive: -6.97%
O=C(NCc1cccc(Cl)c1)c1c2c(nc3ccccc13)C(=O)N(C1CCCCC1)C2	inactive: -10.6%
CC(=O)Nc1cccc(NC(=O)c2cc3c(=O)n4cccc(C)c4nc3n2C)c1	inactive: 8.05%
CCCn1cc(S(=O)(=O)c2ccc(C)cc2)c(=O)c2cc(F)c(N3CCCC3)cc21	inactive: 2.84%
COc1cc(NC(=O)c2ccc(C)c(Cl)c2)ccc1NC(=O)c1cc2ccccc2o1	inactive: -10.1% [at 11.5 µM]

SMILES	activity change, negative = inhibition
Cc1c(C(=O)NCc2ccc(Cl)cc2)oc2ccc3c(c12)C(=O)CC(C)(C)O3	inactive: 13.3%
Cc1ccc(CNC(=O)CSc2ncc3c(n2)-c2cc(Cl)ccc2N(C)S3(=O)=O)cc1	inactive: -10.5%
COc1nc(C)nc(Cl)c1NC1=NCCN1	inactive
COc1ccc(-n2ncc3c(NCCCOC(C)C)ncnc32)cc1	inactive: -1.65%
CCCCNC(=O)C1CCCN(S(=O)(=O)CCC)C1 (configuration not stated)	inactive: -5.52%
O=C(CCc1nc(CN2CCN(S(=O)(=O)c3ccc(Br)cc3)CC2)no1)N1CCCCC1	inactive: -25%
CCOc1ccccc1C1CC(=O)Nc2c1c(=O)n(C)c1ncnn21 (configuration not stated)	inactive: -1.95%
COc1cc2cc(CNc3ccccc3)c(=O)n(CC(=O)Nc3cccc(Cl)c3C)c2cc1OC	inactive: -12.1%
CO/N=C(/C(=O)N[C@@H]1C(=O)N2C(C(=O)OCOC(=O)C(C)(C)C)=C(C)CS[C@H]12)c1csc(N)n1	inactive: 1.13%
Cc1ccc(NC(=O)c2ccc(CN3CCN(C)CC3)cc2)cc1Nc1nc(-c2cccnc2)cs1	inactive: -1.31%
COc1cc(NC(=O)Cn2c(=O)n(CC3CCC(C(=O)NCCc4ccccc4)CC3)c(=O)c3ccccc32)cc(OC)c1 (configuration not stated)	inactive: -8.95%
OCCCc1ccccc1	inactive: -3.8%
CCc1ccc(C(=O)c2cn(CC(=O)Nc3ccc4c(c3)OCCO4)c3ccc(F)cc3c2=O)cc1	inactive: -17.1%
CCCCN(CC)CCCNC(=O)c1c(C)oc2ncnc(N3CCOCC3)c12	inactive: -8.73%
CCc1nn2c(=O)cc(COC(=O)c3cccc(NC(=O)CCc4ccccc4)c3)nc2s1	inactive: -0.72%
CCn1cc(/C=C(\NC(=O)c2ccc(OC)cc2)C(=O)NCCCn2ccnc2)c2ccccc21	inactive: -0.475%
COc1ccccc1CNC(=O)C1CCN(c2nc3ccc(Cl)cc3[nH]2)CC1	inactive: 2.51%
CCCCc1ccc(-n2nc3cc(C)c(NC(=O)c4ccc(C#N)cc4F)cc3n2)cc1	inactive: -8.85%
COc1cc2c(=O)n(CCC(=O)NCC3CCCO3)c(=O)n(CC(=O)Nc3ccccc3C)c2cc1OC (configuration not stated)	inactive: -13.6%
CCc1nn(CC(=O)NCCc2ccc(OC)cc2OC)c(=O)c2cc3occc3n12	inactive: -18.2%
COC(=O)c1cc(-c2ccc(C)cc2)c2c(=O)n(C)c(=O)n(C)c2n1	inactive: -24.9%
Cc1nc(-c2ccc(F)cc2)sc1CCNC(=O)C(=O)Nc1ccc2c(c1)OCCO2	inactive: -19.8%
